Reference: the supplement of paper PMC7726561
Whole data set: some 1,400 sequences, median “thermal melting temperature (Tm) of peptide-HLA complex” near 60, cut for the lowest 2% near 45. The list shows a part of the results.

B1: unnamed (peptide)
chain: YPMDLGGRNFL
B2: unnamed (peptide)
chain: TPRSGEGTVL
B3: unnamed (peptide)
chain: KPFGYGYPTL
B4: unnamed (peptide)
chain: APRRGPALL
B5: unnamed (peptide)
chain: KPYLPSRAL
B6: unnamed (peptide)
chain: QPITPGPSI
B7: unnamed (peptide)
chain: RPAVIGDVL
B8: unnamed (peptide)
chain: LPRPWSVPPL
B9: unnamed (peptide)
chain: RPIASGPVV
B10: unnamed (peptide)
chain: VPTLRSEL
B11: unnamed (peptide)
chain: TPRIPSRLL
B12: unnamed (peptide)
chain: SPHSPFYQL
B13: unnamed (peptide)
chain: FPRITSQYL
B14: unnamed (peptide)
chain: VPRGPIPSEL
B15: unnamed (peptide)
chain: HPRPPIPLSL
B16: unnamed (peptide)
chain: MPKKDARTL
B17: unnamed (peptide)
chain: RPRGFAYVQF
B18: unnamed (peptide)
chain: APVLPHTAV
B19: unnamed (peptide)
chain: APAQARPTVF
B20: unnamed (peptide)
chain: KPNDSRALQL
B21: unnamed (peptide)
chain: SPRSPISPEL
B22: unnamed (peptide)
chain: SPGLKSVL
B23: unnamed (peptide)
chain: IPRVPSLSV
B24: unnamed (peptide)
chain: VPRPVLRAL
B25: unnamed (peptide)
chain: MVASKRKEL
B26: unnamed (peptide)
chain: YPADKISIL
B27: unnamed (peptide)
chain: NPRTKALVL
B28: unnamed (peptide)
chain: VIRELSRAL
B29: unnamed (peptide)
chain: RPQLPQVL
B30: unnamed (peptide)
chain: VPSWSKVNQGL
B31: unnamed (peptide)
chain: RPYMDAVVSL
B32: unnamed (peptide)
chain: FPIPAAEVDRL
B33: unnamed (peptide)
chain: GVRPPAPSL
B34: unnamed (peptide)
chain: LPRRPNDIYV
B35: unnamed (peptide)
chain: YPYPYPHTL
B36: unnamed (peptide)
chain: LPKKNGLYL

Target: HLA-B*07:02
Experiment: thermal melting temperature (Tm) of peptide-HLA complex; higher = more thermostable pHLA complex
Conditions: C1R-B*07:02
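Note: cell lysates heated 10 min at 37–73 °C, remaining pHLA pulled down with pan-class I antibody, peptides quantified by DIA-MS versus 37 °C, Tm where half the complex is lost.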

| Sequence | thermal melting temperature |
| --- | --- |
| B1 | 61.5 °C |
| B2 | 55.4 °C |
| B3 | 60 °C |
| B4 | 62.1 °C |
| B5 | 60.5 °C |
| B6 | 58.8 °C |
| B7 | 59.3 °C |
| B8 | 60 °C |
| B9 | 58.1 °C |
| B10 | 62.9 °C |
| B11 | 57.6 °C |
| B12 | 60.8 °C |
| B13 | 62.3 °C |
| B14 | 62 °C |
| B15 | 57.1 °C |
| B16 | 58.4 °C |
| B17 | 50.1 °C |
| B18 | 59.3 °C |

| Sequence | thermal melting temperature |
| --- | --- |
| B19 | 58.2 °C |
| B20 | 59.1 °C |
| B21 | 59.5 °C |
| B22 | 59.4 °C |
| B23 | 65 °C |
| B24 | 61 °C |
| B25 | 58.7 °C |
| B26 | 57.4 °C |
| B27 | 57.3 °C |
| B28 | 45.3 °C |
| B29 | 60.7 °C |
| B30 | 61.2 °C |
| B31 | 59.6 °C |
| B32 | 62.2 °C |
| B33 | 58.7 °C |
| B34 | 60.7 °C |
| B35 | 60.9 °C |
| B36 | 58.8 °C |
